Laboratory results reported in PubChem BioAssay (NCI).
“And” between values parts separate entries of the source, which are not always exact repeats. Equal entries are not always repeated.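 Interpolation was linear, between the two tested concentrations surrounding the appropriate level; five concentrations were tested over 48 hours in 96-well plates. The concentration for 50% growth inhibition is given as GI50. TGI denotes the concentration required for complete inhibition of growth.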 Peptide text beside a SMILES is read from it. * marks the point of attachment. OSu = O=C1CCC(=O)N1O*; OBn = c1ccc(CO*)cc1; Bn = c1ccc(C*)cc1

Tested on: NCI-H322M lung
Assay: NCI anticancer screen, dose series, 48 h

| SMILES | TGI | GI50 |
| --- | --- | --- |
| O=[N+]([O-])c1cc(Cl)ccc1S(=O)(=O)c1cc(Cl)cc2c1NCCC2 | > 100 µM | – |
| C#CC#CC#CC#CC#CC#CC#CC#CCC1OC[C@H](COC(=O)O[C@@H](C(=O)O[C@H]2C[C@@]3(O)[C@@H](OC(=O)c4ccccc4)[C@@H]4[C@]5(OC(C)=O)CO[C@@H]5C[C@H](O)[C@@]4(C)C(=O)[C@H](OC(C)=O)C(=C2C)C3(C)C)[C@@H](NC(=O)c2ccccc2)c2ccccc2)O1 (stereo not given in full) | > 33.3 µM | 0.717 µM |
| C=C(C(=O)OC)[C@@H]1C[C@@H](O)[C@]2(C)CC/C=C(\C)CCC[C@H](C)[C@H](O)C1O2 | > 100 µM | 42.4 µM |
| Cc1ccc(CC(=O)Nc2ccc(NC(=O)CNC(=O)/C=C/c3ccc(-c4ccccc4)cc3)cc2C(=O)c2ccccc2)cc1 | 24.6 µM | – |
| c1ccc2c(c1)ccc1c3ccccc3ccc21 | > 50 µM | > 50 µM |
| C/C(NC(=O)c1ccccc1)=C(/C(=O)c1ccccc1)[C@@H]1OC(C)(C)O[C@@H]1[C@H]1COC(C)(C)O1 | > 100 µM | – |
| C=C1C(=O)O[C@H]2[C@H]1CC/C(COC(=O)C(=O)c1cn(C)c3ccc(OC)cc13)=C\CC[C@@]1(C)O[C@@H]21 | 13.1 µM | 7.39 µM |
| COc1cnnc2c(C)c(-c3ccccc3)nn12 | > 100 µM | – |
| COc1cc([C@@H]2c3cc4c(cc3[C@@H](Nc3ccc(NC(=O)c5cc(NC(=O)c6cc([N+](=O)[O-])cn6C)cn5C)cc3)[C@H]3COC(=O)[C@H]23)OCO4)cc(OC)c1O | > 61.5 µM | – |
| CCCCC(=O)OC[n+]1ccc2c(C)c3[nH]c4ccc(OC)cc4c3c(C)c2c1 | 12.8 µM | – |
| CC(C)[C@@H](CS(=O)(=O)C(C)C)N1C(=O)[C@@](C)(CC(=O)O)C[C@H](c2cccc(Cl)c2)[C@H]1c1ccc(Cl)cc1 | > 100 µM | 23.6 µM |
| O=[N+]([O-])c1ccc(O)c2ncccc12 | > 100 µM and 60.7 µM | – |
| COc1c(Cl)c(Cl)c(OC)c2c1C(=O)C=CC2=O | > 100 µM | – |
| C=C1C(=O)O[C@H]2[C@H]1CC(=O)/C(C)=C\CC[C@@]1(C)O[C@@H]21 | 14.9 µg/mL | 7.65 µg/mL |
| O=C(c1ccccc1)n1[nH]c(=O)n(-c2ccc(Cl)cc2)c1=O | > 100 µM | – |
| CC12CCC(O)CC1CCC1C2CCC2(C)C(C3=CC(=O)OC3)CCC12 (stereo not given) | 13.4 µM | 1.99 µM |
| Cc1ccsc1/C=N/Nc1ccccn1 | > 100 µM | – |
| O=C1C=C(NCCc2cc(Br)c(O)c(Br)c2)C(=O)c2[nH]cnc21 | > 100 µM | – |
| CC(C)CC(NC(=O)C(N)CCC(=O)OCc1ccccc1)C(=O)NC(COCc1ccccc1)C(=O)NC(Cc1ccccc1)C(=O)ON1C(=O)CCC1=O (stereo not given) (H-E(OBn)LS(Bn)F-OSu; configuration not given here) | > 100 µM | – |
| Cc1nc2ccc(NCCN(C)C)c3c(=O)c4cc(O)ccc4n1c23 | 6.72 µM | – |
| COc1cccc2c1C(=O)c1c(O)c3c(c(O)c1C2=O)C[C@@](O)(/C(C)=N\O)C[C@@H]3OC1CC(N)C(O)C(C)O1 (stereo not given in full) | 25 µM | – |

| SMILES | TGI | GI50 |
| --- | --- | --- |
| OCCNc1nc2c(N3CCCC3)nc(N3CCNCC3)nc2nc1NCc1ccccc1 | 25.4 µM | – |
| O=C1CC(c2c[nH]c3ccccc23)C(=O)N1c1ccccc1 (stereo not given) | > 100 µM | – |
| N#Cc1nc(Nc2ccc([N+](=O)[O-])cc2)sc1N | > 100 µM | – |
| CC(C)(CCC(C)(C)c1ccccc1)c1ccccc1 | 45 µM | – |
| CCCCc1nc2cc(/C=C/C(=O)NO)ccc2n1CCN(CC)CC | 3.35 µM | 0.281 µM |
| Cc1nc2sccn2c1C(=O)OCCOCCOCCOCCOC(=O)c1c(C)nc2sccn12 | > 100 µM | – |
| CCOC(=O)/C=C(/C(=O)OCC)n1ccc(=O)[nH]c1=O | 31.4 µM | – |
| CC(=O)OC1=C2C(CC3C4CC=C5CC(OC(C)=O)CCC5(C)C4CCC23C)C2C(=O)N(Cc3ccccc3)C(=O)C2C1 (stereo not given) | > 100 µM | 25.9 µM |
| O=Cc1cc(O)c(O)c(/C=N/n2c3ccccc3c3ccccc32)c1 | 40.2 µM | – |
| CC12CCC(C1)C(C)(C)C2OC(=O)c1ccccc1C(=O)O (stereo not given) | > 100 µM | – |
| COc1ccc(/C=C/C(C(=O)O)C(=O)O)cc1 | > 100 µM | – |
| O=C(NC(CO)CO)c1ccc2cc(C(=O)N3CC(CCl)c4ccc([N+](=O)[O-])cc43)[nH]c2c1 (stereo not given) | > 100 µM | – |
| CN1c2ccccc2C(C)(C)C12CC(c1ccc(Cl)c(S(=O)(=O)N3CCCC3)c1)=NO2 (stereo not given) | > 100 µM | > 100 µM |
| C=C(COC(=O)C(C)C)[C@H]1Oc2ccc(C(C)=O)cc2[C@@H]1OC(=O)C(C)C | > 100 µM | – |
| c1ccc2nn(C3CCCCO3)nc2c1 (stereo not given) | > 100 µM | – |
| O=c1cc2cc(O)[nH]c(=O)c2c(O)[nH]1 | > 100 µM | – |
| CC(CN(C)C)C(=O)/C=C/c1ccc(Cl)c(Cl)c1 (stereo not given) | 10.8 µM | – |
| COc1ccc(-c2nn(-c3cccc(NC(=O)Nc4cccc(C(F)(F)F)c4)c3)cc2-c2ccncc2)cc1Cl | > 100 µM | 3.84 µM |
| COc1ccc2c(c1)C(=O)c1c-2n(CCCCl)c(=O)c2cc(N(C)C)ccc12 | > 100 µM | > 100 µM |
| O=C(O)C(CO)NC(=O)C1C(C(=O)O)C(c2ccccc2[N+](=O)[O-])C=C(c2ccco2)N1c1ccncc1 (stereo not given) | 23.5 µM | – |
| C1C[OH+]CC[OH+]CC[OH+]CC[OH+]CC[OH+]CC[OH+]1.[Cl-].[Ta+5] | > 100 µM | > 100 µM |
